Source: PMC12136788
This is one part of the list.

B1: chr2:99394746:99394872:+|CDS|ENSG00000158417|unk|FALSE|unique (ssRNA)
RNA: GGGAGUUCUACAGUCCGACGAUCGAUGUGAGAAUUGAACGAGAUGCACAAGAAAUGGCUGAUAGUUUAGGAGUUAGAAUUUUUAGUGCAGAAAUUAUUUAUCAUUUAUUUGAUGCCUUUACAAAAUAUAGACAAGACUACAAGCAACAGAGGAUUGAGCAUCA
B2: ENSG00000150347:stop:overlap|stop_codon|ENSG00000150347|stop_codon|NA|stop_codon (ssRNA)
RNA: GGGAGUUCUACAGUCCGACGAUCAUCCUCAAGCUGCCUUUCCAUCUUCCCAGCUGUCAUCCGUGCACCCCAGUACAAAACUGUAGGCUCAGCUCUGCCCAGCAGUCCAAAGCGGCAUGGCCAACAGAGCUUCACUCCUUACCCCAACAGAGGAUUGAGCAUCA
B3: chr3:170996346:170998103:-|three_prime_utr|ENSG00000163581|control|control|control (ssRNA)
RNA: GGGAGUUCUACAGUCCGACGAUCGGAAAUUGCUGCAGAAUUCCAAAAGAAGAGUGGCUCAGCCCACAGGCCAAAAGCUGCUGUAGAAAUGAAAUUCCUAGGAGCUACAGAGACUGUGUAAAAAAAAAACCCUGCUUUUUGACACAACAGAGGAUUGAGCAUCA
B4: chr1:28768968:28769069:+|3pUTR|ENSG00000198492|msi1|total|mutant (ssRNA)
RNA: GGGAGUUCUACAGUCCGACGAUCGACUGCAGCAACGGUUGCAUCUGCAUAUCCUAAGAGGAAAAAAUGACCUUCAAGAGAAUCCGGACUUUUUUCUUAAUUUCACUGACUUCAGAGACGAUUGCAGACUUGCAGUUUAAGUAUCAACAGAGGAUUGAGCAUCA
B5: chr1:71064632:71064733:-|3pUTR|ENSG00000132485|msi1|total|mutant (ssRNA)
RNA: GGGAGUUCUACAGUCCGACGAUCGCUAAGACAGGAUUACCCCGGCUUGCCUGAACUUUGGGCAUGGAAGAAAGACUGGAAACCCGUUGGAAACAACAUACUUAUGGAAAAGAAAGUCAGCCUUUUUAUGCUGUUAACAGAUGUCAACAGAGGAUUGAGCAUCA
B6: chr5:178210945:178211047:+|3pUTR|ENSG00000197451|unk|total|mutant (ssRNA)
RNA: GGGAGUUCUACAGUCCGACGAUCCUGCUGCCGCUCUGCAGCCUGGACCUGUGGACCCUGGUUGUAAAGAGUAAAUUGUAUCUCCGGAAACCAGUGUCACCUUUUUUUCACCUUUUAAUUUUAUAUUAUUUGCGUCAUACAUUUCAACAGAGGAUUGAGCAUCA
B7: chr2:27243795:27243896:+|3pUTR|ENSG00000084774|unk|total|mutant (ssRNA)
RNA: GGGAGUUCUACAGUCCGACGAUCACUUAAUAAACAGCCGAGCUGUCCCUUGAUGCUGAGUGCCGCCGAACAGAGCUUUCUUUCCGAAAAUUGAGCAGAUUCCCAAAUUAUAAGAGCAGCCUCACCAGGCAGGGCUCUGGCCCGCAACAGAGGAUUGAGCAUCA
B8: chr4:186619803:186619904:-|CDS|ENSG00000083857|msi1|total|mutant (ssRNA)
RNA: GGGAGUUCUACAGUCCGACGAUCAGACGGAGACCCUUUCAGCCAGUUCACUAUUAACUUCAAUACUGGAGUUAUCAAUGUCACCGCUCCUCUGGACUUUGAGGCCCACCCGGCAUAUAAGCUGAGCAUACGCGCAACUGACUCCAACAGAGGAUUGAGCAUCA
B9: ENSG00000107863:be:win_2751|CDS|ENSG00000107863|bound_else_gene|NA|bound_elsewhere_windowed (ssRNA)
RNA: GGGAGUUCUACAGUCCGACGAUCCUCUGGGUCCAGAAAAGAUUCUUCCUCAGAGGUCUUCAGUGAUGCUGCCAAGGAAGGGUGGCUUCAUUUCCGACCCCUUGUCACCGAUAAGGGCAAGCGAGUUGGUGGAAGUAUUCGGCCCAACAGAGGAUUGAGCAUCA
B10: chr7:101138022:101138407:+|3pUTR|ENSG00000106366|msi1|total|mutant (ssRNA)
RNA: GGGAGUUCUACAGUCCGACGAUCCUCUUGGUGGGGAGGGGUGUACCUAAAUAUUUAUCAUAUCCUUGCCCUUGAGUGCUUGUCCGAGAGAAAGAGAACUACUAAGGAAAAUAAUAUUAUUUAAACUCGCUCCCCGUGUUUCUUCAACAGAGGAUUGAGCAUCA
B11: chr7:94537565:94537673:+|CDS|ENSG00000127995|unk|total|mutant (ssRNA)
RNA: GGGAGUUCUACAGUCCGACGAUCGAAGCCUGCCGAUGGGUCCUGUUGUCAACCUCGGCCUCCUGUUACUCUCAUACAGAAGCCCGCUGCUUGUUUUUUCACUUUAUCUAUUAUCGGAUAUUUAAUUUUUUACAUAAUUCAUCGCAACAGAGGAUUGAGCAUCA
B12: ENSG00000185219:stop:overlap|stop_codon|ENSG00000185219|stop_codon|NA|stop_codon (ssRNA)
RNA: GGGAGUUCUACAGUCCGACGAUCGAAAGACCUUCAGGUGGUCUUCGAACCUGGCUCGGCAUAUGAAAAACCAUAUUAGAGAUUAGCCUGGGACCUGACAGUGACAGUGGGGGUGGGUUCUCAGUCCCCUGCUAGAGAACCCUUCAACAGAGGAUUGAGCAUCA
B13: ENSG00000178764:stop:overlap|stop_codon|ENSG00000178764|stop_codon|NA|stop_codon (ssRNA)
RNA: GGGAGUUCUACAGUCCGACGAUCGUGUGUCGGAACUGGCUGAAUCAGACUCCGACUGCGUCCCUGCAGAGGCUGGCCAGGCCUAGACAGGGAAGUCUGUUAGAACUGCUGUGCUGAUCAACGGGACGCUCCGUCUUUGAAGAACAACAGAGGAUUGAGCAUCA
B14: chr2:223959526:223959698:+|CDS|ENSG00000135900|unk|total|mutant (ssRNA)
RNA: GGGAGUUCUACAGUCCGACGAUCCUGGGAUUACCAUGCAGAAAUACAAGCUUUUGGACAUCGGUUACAGGAAAACUUUUCCUCCGAUCUUCUCAAAACUGCAUUUGUUAACCGCUGCUAUAUUAAAAGUGAGGAGGCCAAACGCAACAGAGGAUUGAGCAUCA

target: MSI1 full-length (mouse, UniProt Q61474 1-362); assay: nsRBNS (natural sequence RNA bind-n-seq); RBNS binding buffer (assumed for nsRBNS): 25 mM Tris pH 7.5, 150 mM KCl, 3 mM MgCl2, 0.01% Triton X-100, 500 ug/ml BSA, 20 U/ml SUPERase-In, 4 C; UNK is unkempt and MSI1 is Musashi-1; names of the RNAs are library labels; protein concentration not given here; high values mean tight binding
UniProt Q61474, sequence (Q61474 whole entry): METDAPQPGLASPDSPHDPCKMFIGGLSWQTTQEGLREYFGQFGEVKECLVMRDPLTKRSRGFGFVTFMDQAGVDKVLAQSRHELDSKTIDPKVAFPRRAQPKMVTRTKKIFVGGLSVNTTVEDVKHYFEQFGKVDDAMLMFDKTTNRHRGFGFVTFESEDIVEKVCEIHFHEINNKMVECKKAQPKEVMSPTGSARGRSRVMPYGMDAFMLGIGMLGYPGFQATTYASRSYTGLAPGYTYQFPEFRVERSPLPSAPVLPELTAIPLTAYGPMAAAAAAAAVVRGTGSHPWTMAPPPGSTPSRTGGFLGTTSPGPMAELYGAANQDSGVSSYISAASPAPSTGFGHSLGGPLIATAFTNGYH

Row | Binder | binding signal
1 | B1 | 35 enrichment R
2 | B2 | 0.496 enrichment R
3 | B3 | 0.548 enrichment R
4 | B4 | 0.249 enrichment R
5 | B5 | 0.388 enrichment R
6 | B6 | 0.47 enrichment R
7 | B7 | 0.451 enrichment R
8 | B8 | 0.413 enrichment R
9 | B9 | 0.247 enrichment R
10 | B10 | 1.11 enrichment R
11 | B11 | 1.12 enrichment R
12 | B12 | 0.421 enrichment R
13 | B13 | 2.29 enrichment R
14 | B14 | 0.304 enrichment R
